Test results: the supplement of paper PMC3334620
Over roughly 33,000 sequences, “E-score (-0.5 to 0.5)” has its median near -0.013; the highest 2% begin near 0.3. The list shows a part of the results.

target: T1, Msn1 (UniProt P22148); test: PBM E-score (8-mer binding enrichment) (E-score (-0.5 to 0.5)); higher = stronger / more preferred TF binding; most listed sequences are background and not binding sites; conditions: protein concentration: 200 nM; construct: GST-full length
T1 sequence: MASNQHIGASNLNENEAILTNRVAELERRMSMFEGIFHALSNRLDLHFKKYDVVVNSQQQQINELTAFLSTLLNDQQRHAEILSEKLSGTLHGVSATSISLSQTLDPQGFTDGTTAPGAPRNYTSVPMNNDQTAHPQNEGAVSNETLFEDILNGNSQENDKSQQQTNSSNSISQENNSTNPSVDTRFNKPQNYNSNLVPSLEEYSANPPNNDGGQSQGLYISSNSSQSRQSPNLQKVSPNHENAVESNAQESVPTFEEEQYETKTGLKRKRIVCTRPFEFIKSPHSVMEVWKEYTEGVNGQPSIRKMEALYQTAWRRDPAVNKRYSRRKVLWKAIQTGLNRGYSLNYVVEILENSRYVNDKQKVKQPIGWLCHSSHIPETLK
In short: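 Yeast transcription factors, full-length or as DNA-binding domains, were expressed with a GST tag using PURExpress in vitro transcription/translation. At about 100-200 nM they were applied to universal all-10-mer Agilent arrays, double-stranded by primer extension on fresh or once-stripped slides. Fluorescent anti-GST detected bound protein, and masliner normalised the scans. E-scores for ungapped eight-base words, pooled with reverse complements, came from the Universal PBM Analysis Suite.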

Sequence | PBM E-score
ACTAGGAC | 0.426
GAAAGTGA | 0.0539
AACCAGAA | 0.12
AAATTACT | 0.0929
CTGAATTA | -0.0118
CTGCTAGC | -0.214
AGCGCAAT | 0.0013
CCGACCAC | 0.00118
CAGCAAAC | -0.0316
GATATGTA | 0.12
CCCTACTA | -0.182
CGGCTCGC | 0.0636
CATTGAAG | -0.031
TTAGCGAA | 0.0478
ACTTTTAT | 0.185
ATCATTTG | 0.0889
GGGTAATA | -0.0334
TGGGTACA | 0.142
TAGCGTGA | -0.0734
AATAAGAT | 0.0902
CGATACGA | 0.0206
ATGCTGAC | -0.0547
GAAGTAGA | 0.114
ACAAGCAT | 0.1
AGCCACAG | -0.271

Sequence | PBM E-score
TCACTGCA | 0.173
TAAACGGA | 0.177
CGATGCTC | -0.191
CCCCTACC | -0.3
ACAAAAAG | 0.216
CAATTCCA | -0.0856
CTTACTGA | -0.0638
CGTTATGC | -0.201
ACTTTGTA | 0.129
CGGCCTAC | -0.0105
ATCTACAC | 0.00502
CCCGATAG | -0.115
GTTACATA | 0.0624
ACTTTGTG | 0.0353
GCCTGCAC | -0.209
ACGCGGGA | 0.0676
ACCAAATA | 0.0773
CGCCACGA | -0.0719
AACGGATG | 0.0907
CGTCTACA | -0.13
CTCTCATA | -0.111
GTTCGGTA | 0.142
TGGCCGAA | 0.0465
CATGACAC | 0.193
CGATGCTA | -0.00656

Sequence | PBM E-score
CCCTAAGC | -0.243
CAGGGTGA | -0.271
CGTGCGCA | -0.0408
CCAACATA | 0.133
CAAGTCTG | -0.106
AGTCGCTC | -0.132
ATCTGAAC | -0.103
ACTTCTGG | -0.00562
CAGCATTC | -0.204
CCTACGCA | -0.0988
TAACTTGA | 0.111
CGTCTTCC | -0.106
GCCATCAA | 0.0351
AGCCTACT | -0.232
ATCGTCCC | -0.00418
AAGCGTCG | -0.0583
GTTGCCGA | 0.104
GACCGAGA | 0.174
AACCTCGC | -0.0613
CCCTCCAG | -0.397
AAGGTGAT | -0.0893
CGTGCCAG | -0.149
AGGCAGCA | -0.00913
ACCACAAA | 0.104
CCTTAGAC | -0.0312

Sequence | PBM E-score
AATATAAT | 0.165
CCGACGAC | -0.0326
CTCCATTA | -0.168
TAGTAGGA | 0.0267
TCCAACAA | 0.0926
ACTAACAA | 0.143
GAATTCGC | 0.0812
ATGCTCCA | -0.151
AAAAGAGG | -0.179
CGACGCCG | 0.0839
CAATCTCG | 0.112
GACGTATC | -0.0997
AAGGACGA | 0.0414
AGGTATAC | 0.0069
ACCGGGCC | -0.13
ACCGACAC | 0.152
GCTTTGAC | 0.0601
AGGCCTCG | -0.199
AATATTCG | 0.119
AGATGACT | -0.283
GCAAACGC | 0.123
CCCTACCC | -0.246
GACGTGCA | 0.124
CAATGCGC | 0.142
TGGGAAAA | -0.135

Sequence | PBM E-score
TCTCAGAA | -0.0134
AATATTGA | 0.198
AAGCATTA | -0.0789
TCAAGTGA | 0.0446
CTACGGGC | -0.338
ACACCGTA | -0.0815
ACTTCGCA | 0.03
CAGGTAGC | -0.0607
CCTCATCC | -0.351
CTGGGGAA | -0.417
AGAACCTC | -0.122
TAATTGTA | 0.18
CCGTAGCG | -0.107
ATCATCAC | 0.04
ACAGAAGA | 0.0289
GTACGCTA | -0.0968
CCACAAAG | 0.0847
CCGAATAA | 0.156
ACCCACAT | 0.0586
ACGGTGTG | -0.0943
ACATTTTG | 0.34
TCCTCAGA | 0.083
CGCGCAAG | 0.0558
CAACAACC | -0.00184
CCTCTGAC | -0.0611

Sequence | PBM E-score
CTAAGTTA | 0.0942
AAGATCAT | 0.0396
CGAGCCAC | -0.079
CTGCGAAG | -0.179
AACAGAGC | -0.0188
ATAGACGC | 0.112
ATCAGGAA | -0.0755
CCGCTGCA | -0.0969
CTGTGACA | 0.316
AACATCTG | -0.0495
AGCCGAGA | -0.0207
GGCACCCC | -0.342
ATGCCCCA | -0.222
CGACTAGC | -0.201
AGACACGG | 0.16
CTGTCTTA | 0.181
CAAGGAGG | -0.025
AATCTTCT | -0.0303
AGAATCCG | 0.0519
TCGGGAGA | 0.014
GATTTAAA | 0.00211
CGTCTTGC | -0.0596
GCCCTTTA | -0.318
GCTTGTTA | -0.0427
AATAAGCT | 0.0203

Sequence | PBM E-score
ACCACCAT | -0.19
GCTATAGC | -0.284
CCCCAGTC | -0.265
CAGCAATA | 0.0275
AAGCTAGG | -0.0282
TTCACGAA | 0.0509
ATGGCTTA | 0.0444
ACCTATCG | 0.0547
TACTTTAA | 0.0518
ACAAGGGG | -0.00205
AGGGCTTC | -0.126
GGCCGATA | 0.169
ATCAAGAT | -0.00683
GCCATTAC | -0.00577
CAGGCCCC | -0.18
CCAATATA | -0.096
CATTCCGG | 0.0569
AGCATAGG | -0.258
ACACTAGA | -0.0495
CGGATATC | 0.0424
ATAGTCGA | 0.141
TCTATAAA | 0.175
CCCATGCA | -0.151
ACAACTAT | 0.12
CATCTTAC | -0.0364

Sequence | PBM E-score
ATTGATGA | 0.145
CGGAACCA | 0.114
CGGCCCAA | -0.202
ACCGCGAG | 0.00685
TTAGTAAA | 0.142
GACTAGCC | -0.0281
AAGTAGGC | -0.101
AGATGCCG | -0.0595
AGGGGATG | -0.0972
ACGATGGA | -0.0467
ACTACAGC | -0.26
AAATATAA | 0.272
CCACGAGG | 0.0402
CTGTCCAC | 0.184
ACAATTTG | 0.165
GGTGGGGA | 0.0146
AAACTGTA | 0.0343
CACTAAAC | 0.024
AAACGGCG | 0.104
AGTGTAAT | -0.0103
CCGGGCGA | -0.0558
GCATAATA | 0.236
AGGACGGA | 0.131
AAGCAGGG | -0.119
ATGACACG | 0.214

Sequence | PBM E-score
AAACCGAG | 0.0108
AGCGTCGC | -0.146
AGGGCAAA | 0.00167
ATGTGTTC | -0.0705
GCGCAAAC | 0.00686
GCTGCAAC | -0.162
AGCGAGGA | -0.124
CCGGGCGC | -0.213
CATGAAAG | 0.0334
CATACGGA | 0.158
CACATGAG | -0.101
ATGCCCGC | -0.121
TAGACGCA | 0.0307
ACTTAAAC | 0.115
CAACTACC | -0.00232
CGAGCGCA | 0.14
GCCAGCAC | -0.0728
GTTAGGAA | -0.0822
TCCGGAAA | 0.248
